Test [1] addresses T1, hPILRB (Homo sapiens, UniProt Q9UKJ0).
T1 construct: injections of serial 3-fold dilutions of recombinant ECD reagents
The test is described as follows: SPR (Biacore 8K) binding affinity to hPILRB. Particulars: Table 6. Here is the method: (§1) The binding affinities of anti-PILRA antibodies to hPILRA, hPILRB, and cynoPILRA extracellular domain (ECD) were measured by SPR using a Biacore 8K instrument (Table 2). Antibodies were captured on Biacore™ Series S CM5 sensor chips immobilized with mouse anti-human Fab (human Fab capture kit from GE Healthcare) followed by injections of serial 3-fold dilutions of recombinant ECD reagents at a flow rate of 30 μL/min. Each sample was analyzed using a 3-minute association followed by a 10-minute dissociation. After each injection, the sensor chip was regenerated using a 5 0 mM glycine pH2.0 regeneration buffer. A 1:1 Languir model of simultaneous fitting of kon and koff was used for kinetics analysis.
(§2) The binding affinities of four reference anti-PILRA antibodies to hPILRA, hPILRB, and cynoPILRA were measured by SPR using a Biacore 8K instrument (described in Example 2). The EC50 binding values of the four reference antibodies were also measured in HEK293 cells expressing hPILRA G78.
(§3) Further, humanized antibody clones 36-39 were generated. The binding affinities of these clones for hPILRA G78, hPILRA R78, hPILRB, and cyno PILRA were measured by SPR (Table 8).

Test [2] addresses cynoPILRA. The test is described as follows: SPR (Biacore 8K) binding affinity to cynoPILRA. Also noted: species or system cynomolgus monkey. Particulars: Table 6. The procedure:
as §1, §2, §3

T1 sequence (Q9UKJ0 with tags, fused parts or gaps): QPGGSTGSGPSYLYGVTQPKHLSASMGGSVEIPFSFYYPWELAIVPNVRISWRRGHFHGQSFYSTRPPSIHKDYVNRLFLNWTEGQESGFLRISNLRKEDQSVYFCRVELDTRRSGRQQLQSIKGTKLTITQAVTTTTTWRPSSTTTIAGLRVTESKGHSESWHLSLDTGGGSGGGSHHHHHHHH

B1: Reference Antibody #4: reference anti-PILRA antibody; heavy and light chain sequences among SEQ ID NOS:128-135 (antibody)
heavy: QVTLKESGPGILQPSQTLSLTCSFSGFSLTTFGMGVGWIRQPSGKGLEWLAHIWWDDDKYYNPALKSRLTISKDISKNQVFLKIANVDTADTATYYCARIEDYGNPFDYWGQGTTLTVSSASTKGPSVFPLAPSSKSTSGGTAALGCLVKDYFPEPVTVSWNSGALTSGVHTFPAVLQSSGLYSLSSVVTVPSSSLGTQTYICNVNHKPSNTKVDKKV[left out - human IgG1 Fc with changes]
light: DIQMNQSPSSLSASLGDTITITCHASQNIHVWLSWYQQKPGNIPKLLIYKASNLHTGVPSRFSGSGSGTGFTLTISSLQPEDIATYYCQQGQSYPLTFGAGTKLELKRTVAAPSVFIFPPSDEQLKSGTASVVCLLNNFYPREAKVQWKVDNALQSGNSQESVTEQDSKDSTYSLSSTLTLSKADYEKHKVYACEVTHQGLSSPVTKSFNRGEC
With B1, the “hPILRB KD” value in test [1] was “No binding”. Further, the “cynoPILRA KD” value in test [2] was “No binding”.

B2: Reference Antibody #1: reference anti-PILRA antibody; heavy and light chain sequences among SEQ ID NOS:128-135 (antibody)
heavy: QVTLQESGPGILQPSQTLSLTCSFSGFSLSTFGMGVGWIRQPSGKGLEWLAHIWWDDDKYYNPALKSRLTISKDTSKNQVFLKIASVDTADIATYYCARVEDYGNPFDYWGQGTTLTVSSASTKGPSVFPLAPSSKSTSGGTAALGCLVKDYFPEPVTVSWNSGALTSGVHTFPAVLQSSGLYSLSSVVTVPSSSLGTQTYICNVNHKPSNTKVDKKV[left out - human IgG1 Fc with changes]
light: DIQMNQSPSSLSASLGDTITITCHASQNIHVWLNWYQQKPGNIPKLLIYKASNLHTGVPSRFSGSGSGTGFTVTISSLQPEDIATYYCQQGQSYPLTFGAGTKLELKRTVAAPSVFIFPPSDEQLKSGTASVVCLLNNFYPREAKVQWKVDNALQSGNSQESVTEQDSKDSTYSLSSTLTLSKADYEKHKVYACEVTHQGLSSPVTKSFNRGEC
Take B2: the “hPILRB KD” value in test [1] was “No binding”. In addition, the “cynoPILRA KD” value in test [2] is on record as “No binding”.

The values are drawn from US20260109763A1, “ANTI-PILRA ANTIBODIES, USES THEREOF, AND RELATED METHODS AND REAGENTS” (DENALI THERAPEUTICS INC., priority 2021, published 2026).
